# Out of some 320,000 compounds screened, about 7,600 (2.4%) were called active. Inconclusive results, whose numbers are uncertain, are shown with a selection of clear calls. Calls follow the shape of the dose curve; as a rule, active = well fitted activation curve with a large enough effect; inconclusive = small, poorly fitted or top-dose-only effect; inactive = no such curve, though single readings can be large or run the other way. No potency is given beside an inconclusive call; the fits are too rough.
# Experiment: qHTS Assay for NPC1 Promoter Activators; also: nearly all actives have a fitted effect of over 60% in size; as to activation: % of control where 0% means no effect
# Conditions: Huh7 NPC1 promoter luciferase reporter, 24 h; series mostly up to 9.22 µM; activation: at the top concentration
# Method in brief: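 Luminescence read-out of NPC1 promoter-driven luciferase in stably transfected Huh7 cells; compounds delivered in DMSO and left 24 h at 37C, 5% CO2, qHTS titration format.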
# Potency is read from the fitted curve at half-maximal effect; tags tell the direction and shape of the fitted curve.
SMILES,Potency,activation
C=CCn1c(COc2ccc(OC)cc2)nc2ccccc21,"inconclusive [activator, partial curve]",
Cc1c(/C=C/C(=O)c2ccccc2)cnn1C,"inconclusive [activator, single point]",
Cc1csc2nc(CCNS(=O)(=O)c3cccs3)cn12,"inconclusive [activator, partial curve]",
COC(=O)c1ccc(/C(O)=C(\C#N)c2nc3ccccc3s2)cc1,active: 2.82 µM,
CCOC(=O)/C(=N/Nc1ccc(C)cc1)S(=O)(=O)c1ccc(Cl)cc1,"inconclusive [activator, partial curve]",
COc1cc(/C=N\Nc2nc3ccccc3o2)cc(OC)c1OC,"inconclusive [activator, single point]",
COc1ccc(-c2nc(-c3ccccc3OC)no2)cc1OC,active: 3.55 µM,
C=CCn1c(C)nc2ccccc2c1=O,,inactive: 0.6%
O=C(COC(=O)c1ccc(O)cc1O)Nc1cccc2ccccc12,,inactive: 8.14%
CCOc1ccc2nc(/N=C/c3c(C)[nH]n(-c4ccccc4)c3=O)sc2c1,"inconclusive [activator, partial curve]",
CCc1ccc(N=Nc2ccc(O)c3[nH]cnc23)cc1,"inconclusive [activator, single point]",
Cc1ccc(NC(=O)N2C3CCCC2CC(NC(=O)C(C)(C)C)C3)cc1 (stereo not given),,inactive: 1.29%
CC(C)Sc1nc(N)c2c3c(sc2n1)CN(C)CC3,"inconclusive [activator, partial curve]",
Cc1nn(C)cc1CNC(=O)Nc1ccc(Cl)c(Cl)c1,active: 3.16 µM,
COc1ccc(N2CCN(S(=O)(=O)CCNC(=O)C3CC3)CC2)cc1,,inactive: -3.72%
O=C(N=Nc1c(O)[nH]c2ccccc12)c1cccs1,"inconclusive [activator, single point]",
COc1ccc(-c2cc3nc4c(c(=O)n3[nH]2)CCC4)cc1,"inconclusive [activator, partial curve]",
O=C(NCc1ccco1)c1cc(-c2ccc(Cl)cc2)on1,active: 3.16 µM,
CN(C)c1ccc(C(=S)NCc2ccco2)cc1,"inconclusive [activator, full curve]",
CC(C)=CC(=O)Nc1nnc(C)s1,,inactive: 9.3%
CCCCn1cnc2c(oc3ccccc32)c1=O,"inconclusive [activator, single point]",
COc1cc(C)ccc1OCc1cc(C(=O)N(Cc2c(C)nn(C)c2C)C2CC2)no1,"inconclusive [activator, partial curve]",
O=c1nc(/C=C/c2ccc(O)c(O)c2)oc2ccccc12,"inconclusive [activator, single point]",
COc1ccccc1C(=O)Nc1ccc2oc(-c3ccc(F)cc3)nc2c1,"inconclusive [activator, partial curve]",
Cc1ccc(O)c(C(=O)CC(=O)c2cccc(F)c2)c1,"inconclusive [activator, single point]",

SMILES,Potency,activation
COC(=O)c1ccccc1NC(=O)CN(c1ccc(OC)cc1)S(C)(=O)=O,,inactive: -5.49%
Cc1ccc(O)c(NC(=O)c2noc3c2CCc2ccccc2-3)c1,"inconclusive [activator, single point]",
CCc1sc(C(=O)N2CCc3ccccc32)cc1C,active: 1.12 µM,
Cc1ccc(-c2csc3nc(C)n(N)c(=O)c23)o1,"inconclusive [activator, single point]",
O=S(=O)(N/N=C/c1cn(Cc2ccccc2)c2ccccc12)c1ccccc1,,inactive: -3.43%
CC(C)(C)c1ccc(-c2nnc(NC(=O)c3ccccc3)s2)cc1,"inconclusive [activator, partial curve]",
CC(=O)Nc1ccc(/C=C/c2nc(-c3ccccc3O)n[nH]2)cc1,"inconclusive [activator, single point]",
CC1CC2=C(NC(=S)NC2c2cccc(F)c2)/C(=C/c2cccc(F)c2)C1 (stereo not given),,inactive: -5.23%
C=CCn1cccc(C(=O)Nc2ccc(OCC)cc2)c1=O,"inconclusive [activator, full curve]",
COc1ccc(C(=O)N/C=C/n2cnc3cc(C(F)(F)F)ccc32)cc1,,inactive: -1.2%
CCCc1cc(=O)n2[nH]c(-c3ccc(Cl)cc3)cc2n1,"inconclusive [activator, partial curve, poor fit]",
Cc1nn(C)cc1CNC(=O)Nc1cccc(Cl)c1,"inconclusive [activator, partial curve]",
COC(=O)c1ccc(CSc2nnc(C)s2)cc1,"inconclusive [activator, single point]",
COc1cccc(/C=C2/C(=O)NN(c3ccc(Br)cc3)C2=O)c1O,,inactive: -3.45%
COc1nccc(C(F)(F)F)c1C(=O)Nc1ccc(Cl)cc1,,inactive: -4.42%
Cc1ccc(C2=NN3C(=O)c4ccccc4C3C2)cc1 (stereo not given),"inconclusive [activator, partial curve]",
O=C(NC(=S)Nc1ccc2c(c1)OCCO2)c1ccco1,"inconclusive [activator, single point]",
Cc1sc(NC(=O)c2ccccc2F)c(CN2CCCCC2)c1C,"inconclusive [activator, partial curve]",
N/C(=N\OC(=O)c1ccco1)c1ccc(Cl)cc1,"inconclusive [activator, partial curve]",
O=C(Nc1ccc2nccnc2c1)Nc1ccccc1Cl,"inconclusive [activator, single point]",
COc1cccc2oc3cc(C#CC4(O)CCCCC4)ccc3c(=O)c12,active: 0.355 µM,
COc1cc(/C=N/Nc2nncc3ccccc23)cc(OC)c1OC,active: 1.58 µM,
Cc1cccnc1Nc1nc(-c2ccccc2)cs1,active: 3.16 µM,
NC(=O)CC(NC(=O)c1cccc(Br)c1)c1ccc(NCCN2CCOCC2)c([N+](=O)[O-])c1 (stereo not given),,inactive: -0.686%
O=C(Nc1nc2c(s1)CCc1ccccc1-2)c1cccs1,"inconclusive [activator, partial curve]",

# Source: PubChem BioAssay AID485313 (National Center for Advancing Translational Sciences (NCATS), 2010)
